Test results as given in PubChem BioAssay (NCI).
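Where inhibition never reached the appropriate level, the endpoint shown equals the highest concentration tested. Otherwise, values were interpolated linearly from a five-concentration, 48-hour dose response in 96-well plates. GI50 is the concentration that inhibits growth by half. At the TGI there is no net growth.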 The source made the active and inactive calls.

What was measured:
Assay in all cases: NCI tumour cell line growth inhibition, 48 h
CCRF-CEM leukemia = test system: CCRF-CEM leukemia
HOP-92 NSCLC = test system: HOP-92 NSCLC
NCI-H226 lung = test system: NCI-H226 lung
NCI-H23 lung = test system: NCI-H23 lung
SR leukemia = test system: SR leukemia
UACC-257 melanoma = test system: UACC-257 melanoma

Compound: Fc1ccc(-c2ncn(C3CCNCC3)c2-c2ccnc(Oc3cccc(C(F)(F)F)c3)n2)cc1
- GI50 (CCRF-CEM leukemia): inactive
- TGI (CCRF-CEM leukemia): 12.7 µM
- GI50 (HOP-92 NSCLC): inactive
- TGI (HOP-92 NSCLC): 6.28 µM
- GI50 (NCI-H226 lung): inactive
- TGI (NCI-H226 lung): 8.16 µM
- GI50 (NCI-H23 lung): inactive
- TGI (NCI-H23 lung): 10.2 µM
- GI50 (SR leukemia): inactive
- TGI (SR leukemia): 10.3 µM
- GI50 (UACC-257 melanoma): inactive
- TGI (UACC-257 melanoma): 7.67 µM
